Laboratory results from patent US8847003B2, “Role of proteoglycans in drug dependence” (priority 2002, dated 2014).

System: Normal C57BL/6J mice
Assay: Escalation of cocaine intake, long (6 hrs) access cocaine self-administration
Settings: ICV injection before the self-administration session during escalation phase; GM-6001 0.4 μg/mouse; differs from controls on day 7 and 8

Compound	escalation of cocaine intake (first hour of the 6 hours of self-administration)
CNC(=O)[C@H](Cc1c[nH]c2ccccc12)NC(=O)[C@H](CC(C)C)NC(=O)OC(C)(C)C [GM(−)]	readily escalated their cocaine intake
Ilomastat [GM6001]	prevented escalation of cocaine intake
